From PubChem BioAssay AID1745853 (National Center for Advancing Translational Sciences (NCATS), 2022)
This is one part of the list. These are further read-outs of the screen, such as a control signal, another cell line or another target. No call is given for them.

Columns and labels:
Assay in all cases: Primary Screen for Target Class Profiling of Small Molecule Inhibitors of Methyltransferases
[1] = molecular target: Glycine N-methyltransferase (Homo sapiens) (UniProt Q14749); details: purified enzyme, MTase-Glo SAH luminescence; measured here: GNMT inhibition; at 40 µM; stronger effect = lower value
Method in brief: (§1)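 Each enzyme was reacted with SAM and its substrate, with compounds tested once at 40 uM; SAH formed was read by MTase-Glo luminescence.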

[2] = molecular target: Guanidinoacetate N-methyltransferase (Homo sapiens) (UniProt Q14353); details: purified enzyme, MTase-Glo SAH luminescence; measured here: GAMT inhibition; at 40 µM; stronger effect = lower value
Method in brief: as §1

[3] = molecular target: Histamine N-methyltransferase (Homo sapiens) (UniProt P50135); details: purified enzyme, MTase-Glo SAH luminescence; measured here: HNMT inhibition; at 40 µM; stronger effect = lower value
Method in brief: as §1

[4] = molecular target: Nicotinamide N-methyltransferase (Homo sapiens) (UniProt P40261); details: purified enzyme, MTase-Glo SAH luminescence; measured here: NNMT inhibition; at 40 µM; stronger effect = lower value
Method in brief: as §1

[5] = molecular target: Phenylethanolamine N-methyltransferase (Homo sapiens) (UniProt P11086); details: purified enzyme, MTase-Glo SAH luminescence; measured here: PNMT inhibition; at 40 µM; stronger effect = lower value
Method in brief: as §1
On the % scale 0 is the no-effect control and ±100 the full control effect.

Compound	activity change, negative = inhibition [1]	activity change, negative = inhibition [2]	activity change, negative = inhibition [3]	activity change, negative = inhibition [4]	activity change, negative = inhibition [5]
Nc1nc(C2CC(N)C2)cc(N2CCCN(Cc3cccs3)CC2)n1 (configuration not stated)	-5.55%	-7.57%	-46.8%	-10.1%	-10.1%
C[C@@H]1O[C@@H](O[C@H]2[C@@H]3C=CO[C@@H](O[C@@H]4O[C@H](CO)[C@@H](O)[C@H](O)[C@H]4O)[C@@H]3[C@@]3(CO)O[C@@H]23)[C@H](OC(=O)/C=C/c2ccc(O)cc2)[C@H](O)[C@H]1O	2.14%	4.29%	-27.1%	-8.75%	5.59%
CCC1(C(=O)Nc2cc(OC)ccc2OC)CCCCC(=O)N1 (configuration not stated)	-0.519%	1.26%	2.09%	-3.31%	-1.87%
O=C(CCc1nnc2n(Cc3ccccc3Cl)c(=O)c3ccccc3n12)NCCN1CCOCC1	-0.35%	1.44%	10.4%	10.6%	3.75%
Cc1ccc(CNC(=O)CSc2nnc3n(C)c(=O)c4ccc(C(=O)NC5CCCCC5)cc4n23)cc1	-1.62%	0%	-0.983%	1.24%	5.28%
COc1ccc(C(=O)COC(=O)C(Cc2c[nH]c3ccccc23)NC(=O)c2ccc(Cl)cc2)cc1 (configuration not stated)	14.1%	3.86%	5.44%	6.51%	10.3%
Cc1cccc(N(C)C(=S)Oc2ccc3c(c2)CCC3)c1	7.61%	1.03%	7.4%	-17%	-1.36%
O=C(NCc1ccccc1)c1csc(Nc2ccncn2)n1	-15.7%	-3.26%	-8.95%	-18.5%	-7.48%
CC(C)C(C#N)O[C@@H]1O[C@H](CO[C@@H]2OC[C@](O)(CO)[C@H]2O)[C@@H](O)[C@H](O)[C@H]1O (some centres not stated)	1.51%	4.4%	9.2%	-9.04%	2.36%
CCCn1c(=O)c2ccc(C(=O)NC(C)CC)cc2n2c(=O)n(Cc3cccc(C)c3)nc12 (configuration not stated)	-1.55%	2.22%	1.16%	-8.88%	-1.84%
CCOc1ccc(N(C(=O)C2CCCCC2)S(=O)(=O)c2ccc3c(c2)n(C)c(=O)n3C)cc1	-6.56%	5.3%	-4.17%	-17.1%	-2.56%
CCc1cccc(NC(=O)Cn2nc3n(C(C)C)c(=O)c4ccc(C(=O)NCC(C)C)cc4n3c2=O)c1	8.35%	1.75%	11.2%	3.46%	7.52%
CNC[C@H](O)c1ccc(O)c(O)c1	-35.3%	2.77%	0.404%	-9.95%	-12.3%
COc1ccc(CN2C(=O)c3ccc(-c4ccco4)n3CC2(C)C(=O)NC2CCCC(C)C2C)cc1 (configuration not stated)	1.69%	0%	4.46%	-2.77%	-1.94%
CCn1cc(CN2CC(Oc3ccc(-c4noc(-c5cccnc5)n4)cc3)C2)cn1	-15.8%	-11.8%	-42.5%	-20.4%	-8.25%
c1ccc(CCCc2noc(-c3ccc(N4CCOCC4)nc3)n2)cc1	-6.82%	-2.12%	-3.23%	-6.31%	-1.66%
Cn1c(=O)c2ccc(C(=O)NC3CCCCC3)cc2n2c(=O)n(Cc3ccccc3F)nc12	-0.915%	4.59%	2.66%	-3.12%	-0.23%
CNCc1ccc(-c2cc(-c3nc(-c4ccc(S(=O)(=O)C(C)C)cc4)cnc3N)on2)cc1	-4.54%	0.063%	-5.13%	-17.2%	-32.6%
CCCCCCCCCCCCCCCCCCN(CCCCCCCCCCCCCCCCCC)CCCN(CCO)CCO	4.17%	7.88%	1.29%	-3.26%	7.72%
CC(C)(N)C(=O)N1CCN(c2nc(-c3ccccc3)nc3c2CCC3)CC1	-5.66%	-3.35%	-8.12%	-8.51%	-8.84%

Compound	activity change, negative = inhibition [1]	activity change, negative = inhibition [2]	activity change, negative = inhibition [3]	activity change, negative = inhibition [4]	activity change, negative = inhibition [5]
CN1CCN(CCCN2c3ccccc3Sc3ccc(C(F)(F)F)cc32)CC1	-4.22%	9.63%	-12.7%	-63.9%	0.076%
Nc1ccn([C@@H]2C(F)=C(CO)[C@@H](O)[C@H]2O)c(=O)n1	1.94%	6.27%	9.6%	-8.71%	8.16%
CCC1(C2CCN(C(=O)CCCc3ccccc3)CC2)NC(=O)N(CCc2scnc2C)C1=O (configuration not stated)	-1.24%	3.04%	0.303%	1.14%	1.97%
CCCCNc1nc2c(S(=O)(=O)c3ccc(C)c(C)c3)nnn2c2ccccc12	-4.81%	0.633%	4.06%	-3.83%	-5.91%
CC1(C(=O)NCc2ccc(F)cc2)Cn2cnc(C(=O)NC3CCCCC3)c2C(=O)N1C1CC1 (configuration not stated)	1.26%	0.519%	5.42%	-0.34%	4.58%
O=C(CCC(=O)n1ncc2ccc(Cl)cc21)N1CCN(c2ccccc2)CC1	-6.91%	4.3%	3.35%	-0.591%	-2.17%
COC(=O)Nc1nc2ccc(C(=O)c3cccs3)cc2[nH]1	3.31%	-6.81%	7.48%	-24.4%	-24.7%
COc1ccc(-c2cc3n(n2)CC(C)(C(=O)NC2CCCCC2)N(Cc2ccc(C)cc2)C3=O)cc1 (configuration not stated)	0.175%	-0.446%	2.61%	-7.5%	-3.87%
Cc1nc(-c2cccnc2)ncc1C(=O)N1CCC2(CC1)CC(=O)N(C)C2	-3.35%	-7.36%	-0.79%	-10.2%	-5.14%
CCOC(=O)c1cc2n(n1)CC(C)(C(=O)NC1CCC(C)CC1)N(CCc1cccs1)C2=O (configuration not stated)	1.85%	0%	3.26%	-4.6%	0.979%
O=C(N[C@@H]1COCC[C@@H]1OCC1CC1)c1cc(-n2cccn2)ccc1Cl	-4.37%	-6.23%	-0.712%	-6.52%	-2.58%
CC(C)c1cc2n(n1)CC(C)(C(=O)NC1CCCCC1)N(c1cccc(Cl)c1)C2=O (configuration not stated)	-0.152%	0%	3.49%	3.26%	-0.082%
CC1(C(=O)NC2CCCCCCC2)Cc2ccccc2C(=O)N1CCN1CCCCCC1 (configuration not stated)	-3.59%	6.21%	-8.96%	1.36%	-0.301%
CCN(c1ccccc1)S(=O)(=O)c1ccc2[nH]c3c(c2c1)CCCC3	0.001%	0.779%	4.84%	-1.97%	0.779%
O=C(c1ccccc1)N1CC2(CCCN2CC2CC2)Cc2ccccc21 (configuration not stated)	-3.66%	1.98%	-9.46%	-6.83%	-1.09%
COc1ccc(-c2cc3n(n2)CC(C)(C(=O)NCc2ccccc2)N(Cc2ccc(F)cc2)C3=O)cc1 (configuration not stated)	5.56%	0%	8.02%	7.26%	3.1%
O=S(=O)(Nc1cc(Cl)c(Oc2cnc3ccccc3c2)c(Cl)c1)c1ccc(Cl)cc1Cl	-22.9%	-44.5%	-2.61%	-89.7%	-37.7%
CC(=O)c1ccc(Nc2nc3c(S(=O)(=O)c4ccc(C)c(C)c4)nnn3c3ccccc23)cc1	-3.98%	3.67%	-3.48%	-3.83%	-4.85%
CN(C)CC(=O)Nc1ccc2[nH]c(=O)c3ccccc3c2c1	-7.36%	-1.6%	-28.5%	-22.4%	-7.67%
Cc1c(NC(=O)OCC2COCCN2)cn2ncnc(Nc3ccc4c(cnn4Cc4cccc(F)c4)c3)c12 (configuration not stated)	-2.17%		5.54%		

Compound	activity change, negative = inhibition [1]	activity change, negative = inhibition [2]	activity change, negative = inhibition [3]	activity change, negative = inhibition [4]	activity change, negative = inhibition [5]
O=C(C1COc2cc(S(=O)(=O)NCCN3CCOCC3)ccc2O1)N1CCOCC1 (configuration not stated)	1.04%	0%	9.7%	10.9%	8.37%
Cc1ccc(CNC(=O)CCn2ccc3cc(S(=O)(=O)N4CCC(C)CC4)ccc32)cc1	6.15%	1.8%	2.83%	-0.859%	-0.173%
CC1(C)[C@H]2C[C@H](C/C=C\CCCC(=O)O)[C@@H](NC(=O)c3csc4ccc(O)cc34)[C@@H]1C2	-0.893%	0.549%	11.3%	-39.8%	-1.08%
CN1C(=O)c2cc(NC(=O)CCC(=O)N3CCOCC3)ccc2N2CCN=C12	-1.25%	-0.082%	-1.75%	-2.21%	-4.4%
CCNC(=O)N[C@H]1CC[C@]2(C)CCC([C@H](C)C(=O)N(C)CCC#N)[C@H](O)[C@H]2[C@@H]1C (some centres not stated)	-1.48%	-0.678%	-0.232%	-4.2%	-1.92%
COc1ccccc1CNC(=O)C1(C)Cn2nc(-c3ccccc3)cc2C(=O)N1Cc1ccccc1F (configuration not stated)	3.17%	4.71%	6.38%	-2.47%	-0.264%
COc1ccc(CNC(=O)C(C)n2ccc3cc(S(=O)(=O)N4CCCCC4)ccc32)c(OC)c1 (configuration not stated)	-0.045%	0%	4.19%	-5.1%	1.45%
CCC(C)NC(=O)c1ccc2c(=O)n(C)c3nnc(SCC(=O)Nc4cc(F)ccc4F)n3c2c1 (configuration not stated)	-0.451%	1.88%	-1.84%	-5.11%	-3.51%
Cc1ccc([C@@H]2CC=C(C(=O)O)[C@H](c3ccc(C(C)(C)C)cc3)N2S(=O)(=O)c2ccc(C)cc2)cc1	-18.9%	-5.6%	9.16%	-41.3%	-8.76%
CC1=NS(=O)(=O)N(C)C=C1C(=O)OCc1nc(-c2cccc(C)c2)no1	-5.9%	-2.59%	-4.02%	-9.19%	-4.08%
CN(CC(=O)Nc1ccc(Br)cc1F)S(=O)(=O)c1ccc2[nH]c3c(c2c1)CCCC3	-0.906%	-2.17%	-0.257%	-3.86%	-0.287%
Cc1ccccc1Cn1nc2n(Cc3ccccc3)c(=O)c3ccc(C(=O)NC4CCCC4)cc3n2c1=O	4.25%	3.51%	0.642%	12.2%	1.46%
CCCN1C(=O)c2c(C(=O)NCc3ccc(OC)cc3)ncn2CC1(C)C(=O)NCc1ccc(C)cc1 (configuration not stated)	1.76%	0.65%	2.87%	6.12%	6.57%
N#C/C(=C\c1ccc(-c2cc(Cl)ccc2Cl)o1)C(=O)Nc1cccc2ncccc12	-24%	3.12%	-4.05%	-7.8%	2.44%
COC(=O)C1=COC(O[C@@H]2O[C@H](CO[C@@H]3O[C@H](COC(=O)/C=C\c4ccc(O)cc4)[C@@H](O)[C@H](O)[C@H]3O)[C@@H](O)[C@H](O)[C@H]2O)C2C(CO)=CCC12 (some centres not stated)	-1.35%	-4.14%	4.56%	-11.4%	-7.68%
CC1(C(=O)NCc2cccnc2)CCCc2cnc(Nc3ccccc3F)nc21 (configuration not stated)	-14.1%	-8.72%	-6.45%	-20.7%	-7.02%
COC(=O)c1sccc1S(=O)(=O)N1CCN2C(=O)CN(C)C(=O)C2C1 (configuration not stated)	-0.352%	-0.049%	3.54%	0.057%	2.78%
CC1(C(=O)NC2CCCC2)Cn2c(nc3ccccc32)C(=O)N1Cc1cccnc1 (configuration not stated)	10.7%	1.01%	9.93%	13.8%	5.22%
